In the supplement of paper PMC11417369:
This is one part of the list.

Tested on: PfAP2-HC AP2 domain (GST-tagged)
Test: gcPBM binding intensity (ln(normalized median fluorescence intensity)); higher = stronger DNA binding
Summary of the method: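 Plasmodium falciparum DNA-binding domains carrying a GST tag were expressed in E. coli and applied for 1 h, at about 25 μg on average, to an Agilent 4 × 180k array. The array held primer-extended double-stranded 36-bp intergenic genomic probes together with negative controls, and binding took place in 1× PBS with 1% milk, 0.2 mg/ml BSA, 0.5% salmon testes DNA and 0.03% Triton X-100. An Alexa488 anti-GST antibody detected bound protein, and the array was scanned at 488 nm. Binding intensity is taken as the highest Masliner-normalised natural-log median intensity across replicate spots of either probe orientation.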

Sequence | gcPBM binding intensity (ln)
TATATTTAATTATTATGTACTTATAATTTTTGAAAG [XGTACX_site8548] | 9.24
TATGTATTTATCCACTTACATTTTTACTTTTCCATT [CACACA_negctrl_site1141] | 9.76
TATATATATAATATTACACACATATATTTATATTTT [CACACA_site3460] | 9.8
ATTTATACATGCTAATGTACTTATTTCACCTATATC [XGTACX_site3120] | 9.87
TATGGTATATACAACACACACACATATGTATAAATA [CACACA_site6562] | 10.5
CAAGTATTAATTATGTGTACATATATATATATATAT [XGTACX_site5311] | 9.97
TTAATATTGTATTTCACACATAATTTAATATACTCA [CACACA_site5678] | 9.68
TATAATGAGGATAATAGTACATATGAATACAAAAAA [XGTACX_site3665] | 9.81
TACACAAGCAGACACACACACATATAGATTTATATA [CACACA_site6715] | 10.3
GCCATAAAAATATATACACACATAAAAAAAAATTAT [CACACA_site1176] | 9.89
TCTTAAGGAAAAGAGTGTACAGAAATTTTTATTAAC [XGTACX_site6139] | 9.45
ATCCGAGTGTGAAATACACACATGATAATGTGAATG [CACACA_site919] | 9.99
AATTATATTACAAACTGTACATATATAATTTGTCCA [XGTACX_site6009] | 9.59
TTAAATAAGTAATTATGTACATATAATATTCTTTAT [XGTACX_site5280] | 9.61
TATAGGAATATATGGTGTACCTATAAATCTGACATA [XGTACX_site8111] | 9.6
AAAAATAAAAATTGCACACTAAAAAATTACGCACGA [CACACA_site3418] | 9.8
ATTTATATATTTATACGTACTTATATATTGTTACAT [XGTACX_site6254] | 10.2
TAGAAAATATAAAAATGTACGTAAATAAAATGTGCA [XGTACX_site3459] | 9.87
TTATAATAATAGAACTTTATGTAGAAAAAAGGAAAA [XGTACX_negctrl_site116] | 9.56
ACACATACTAAAATGTTGTGAAATATGATAATGTGA [CACACA_negctrl_site851] | 9.88
TATATATATATATATAGTACATATTAATTAATTTAT [XGTACX_site8198] | 9.59
CACAGACACGGACACACACACACACCCACATATATA [CACACA_site4355] | 11.5
ATATATTTTAAATATATTATTATTGCATTGTGAAAA [TGCATGCA_negctrl_site106] | 9.34
TCTTAAAAAATAGGGACACGTAAATATAATATATAA [CACACA_negctrl_site554] | 9.59
